Out of some 110,000 compounds screened, about 230 (0.21%) showed an effect of 50% or more. Some of the results follow.
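Note: 30 min substrate incubation versus DMSO and 10 µM JCP410 controls.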

The assay deals with DPAP1 (Plasmodium falciparum, UniProt Q8IIJ9). Kind of assay: primary screen, percent inhibition; read by cleavage of a fluorogenic dipeptide substrate; higher = more effect of the substance. The arrangement: species or system P. falciparum D10 trophozoite lysates; single well.
Sequence of DPAP1 (Q8IIJ9 whole entry, looked up): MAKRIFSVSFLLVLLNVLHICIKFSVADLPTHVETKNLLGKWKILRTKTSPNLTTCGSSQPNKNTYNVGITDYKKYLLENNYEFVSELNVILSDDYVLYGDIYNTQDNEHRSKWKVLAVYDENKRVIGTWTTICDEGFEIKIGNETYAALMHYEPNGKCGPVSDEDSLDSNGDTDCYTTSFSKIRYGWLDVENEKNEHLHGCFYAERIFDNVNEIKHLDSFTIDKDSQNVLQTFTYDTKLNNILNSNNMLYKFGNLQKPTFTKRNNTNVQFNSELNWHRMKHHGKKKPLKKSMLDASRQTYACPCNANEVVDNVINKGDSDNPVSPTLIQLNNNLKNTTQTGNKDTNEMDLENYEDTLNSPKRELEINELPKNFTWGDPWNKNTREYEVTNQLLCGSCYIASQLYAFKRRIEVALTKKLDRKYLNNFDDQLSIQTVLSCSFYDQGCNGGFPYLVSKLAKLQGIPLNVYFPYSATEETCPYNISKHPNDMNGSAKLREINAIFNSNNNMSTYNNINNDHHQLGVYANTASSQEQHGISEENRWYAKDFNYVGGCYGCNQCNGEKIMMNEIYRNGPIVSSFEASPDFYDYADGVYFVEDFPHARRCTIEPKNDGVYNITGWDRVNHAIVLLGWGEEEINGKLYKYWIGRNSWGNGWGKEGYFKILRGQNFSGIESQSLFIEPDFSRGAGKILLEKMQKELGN
In the case of `C#CCOc1nc(OCC#C)nc(N2CCN(C)CC2)n1`, the “% Inhibition @ 10 uM” value is -1.15%.
Regarding `C/C(=C(/NC(=O)c1ccccc1)C(=O)NC1CCCCC1)c1ccccc1`, the “% Inhibition @ 10 uM” value is listed as -0.988%.
The result for `N#Cc1cc2c(N)c(C(=O)Nc3ccccc3Br)sc2nc1N` reads 0.661%.
Consider `COCc1nc2cc(C)ccc2[nH]1`, for which the “% Inhibition @ 10 uM” value came to 1.12%.
For `COc1cccc(NC(=O)CNS(=O)(=O)c2ccc(Br)cc2)c1` the value was 8.82%; for `COc1ccccc1NC(=O)CN(Cc1ccc(Cl)cc1)S(=O)(=O)c1ccc(C)cc1`, -3.39%; for `Cc1nc(SCC(=O)NC(C)c2ccccc2)[nH]c1CC(C)C` (centres unmarked), -3.75%.
The result for `CN(C)CCSC1c2ccccc2CSc2ccccc21` (centres unmarked) reads -4.76%; that for `Cn1c(N)c(Sc2nnnn2-c2ccccc2)c(=O)[nH]c1=O`, 1.72%.
The result for `CCc1ccc(CN2C(=O)c3ccccc3C2C(=O)NCCc2ccccc2)cc1` (centres unmarked) reads 8.4%.
With `Cc1ccc(N2C(=O)c3ccccc3NC23C(=O)Nc2ccccc23)cc1` (centres unmarked), the “% Inhibition @ 10 uM” value came out at 6.98%.
Consider `CCc1c(C#N)c(SCCC(=O)NCc2ccc3c(c2)OCO3)nc2c1C(=O)CC(C)(C)C2`, for which the “% Inhibition @ 10 uM” value is given as -3.9%.
For `CNS(=O)(=O)c1cnccc1N1CCN(c2cccc(Cl)c2)CC1` the value was -1.59%.
For `COc1ccc(CN2CCN(C(=O)c3ccc(-n4cnc5cccnc54)cc3)CC2)c(OC)c1OC` the value was -5.35%; for `Cc1ccc2c(CN3CCN(C(=O)c4ccccc4)CC3)cc(=O)oc2c1`, 0.635%; for `CC1CC(C)CN(c2c(-c3ccccc3)c(=O)c2=O)C1` (centres unmarked), -1.98%.
The result for `CCOC(=O)N1CCC(N2CCc3c([nH]c4ccccc34)C2)CC1` reads -3.6%; that for `Cn1c(=O)c2c(ncn2CC(=O)NCCc2ccc(F)cc2)n(C)c1=O`, 3.72%.
For the molecule `COc1cccc2c1cc1c(O)nnc(C)n12`, the “% Inhibition @ 10 uM” value turned out to be 0.0882%.
For `CC(=O)CC(=O)Nc1ccc(Cl)cc1[N+](=O)[O-]` the value was 4.34%; for `c1ccc(CCCN2CCOCC2)cc1`, -1.78%.
For `OCC1CCCN1Cc1cccc(Cl)c1` (centres unmarked) the value was -4.14%.
With `C#CCOC(=O)c1ccc(S(=O)(=O)N2CCOCC2)cc1`, the “% Inhibition @ 10 uM” value was determined as 13%.
The result for `O=C1C(=O)N(C(=O)Nc2cccc3ccccc23)c2ccc(Br)cc21` reads -0.415%; that for `COc1ccccc1N1CCN(C(=O)CN(c2ccc(C)cc2)S(=O)(=O)c2ccc(C)cc2)CC1`, -4.91%.
For `CCOCCCNC(=O)C(C)n1nc(C)c2sc3ccccc3c2c1=O` (centres unmarked) the value was 2.95%; for `COc1ccc(N2C(=O)C3CC(C)=C(C)CC3C2=O)c(OC)c1` (centres unmarked), 0.983%.
For `CC(C)CNC(=O)C1CC(c2ccc(F)cc2)=NO1` (centres unmarked) the value was -2.16%.
As to `Cc1ccc(NC(=O)c2ccccc2Cl)cc1O`, the “% Inhibition @ 10 uM” value is 0.907%.
The result for `O=C1NC(=O)N(C2CCCCC2)C(=O)/C1=C\c1c[nH]c2ccccc12` reads -5.01%; that for `CCN(Cc1cc2cc(C)ccc2nc1O)S(=O)(=O)c1ccc(C)cc1`, -0.671%.
As for `Cc1cccc(C(=O)Nc2ccc(C)cc2C)c1`, the “% Inhibition @ 10 uM” value is given as -1.22%.
For `CCc1ccc(S(=O)(=O)Nc2ccc(O)cc2)cc1`, the “% Inhibition @ 10 uM” value is 5.43%.
For `COc1cccc(C2/C(=C(\O)OCCC(C)C)C(C)=Nc3nnnn32)c1OC` (centres unmarked) the value was 3.27%.
Consider `COC(=O)/C(=C1/Oc2cc3c(cc2S1)OCO3)C(F)(F)F`, for which the “% Inhibition @ 10 uM” value came to 0.146%.
Take `COc1ccc(Cl)cc1NC(=O)c1cccnc1`: the “% Inhibition @ 10 uM” value is given as 2.22%.
Take `Cc1ccc(-c2nnn3c2nc(NCCC(C)C)c2ccccc23)cc1`: the “% Inhibition @ 10 uM” value is on record as -8.42%.
For `O=C(O)CN1CC(c2ccccc2)CC1=O` (centres unmarked) the value was -6.11%.
The result for `CCOC(=O)c1c(S(=O)(=O)N(CCOC)Cc2cccs2)c(C)n(C)c1C` reads 0.399%; that for `CC(C)(C)OC[C@H](NC(=O)c1ccccc1)C(=O)NCC#N`, -1.83%.
For `CCN1CCN(C(CNS(=O)(=O)c2ccc(C)cc2)c2ccccc2)CC1` (centres unmarked) the value was -4.42%; for `Oc1nc(-c2ccccn2)nc2c1Cc1cc(F)ccc1O2`, 0.655%.
As to `COc1cccc(-c2cc(C(=O)Nc3cnn(Cc4ccc(F)cc4)c3)no2)c1`, the “% Inhibition @ 10 uM” value was -4.07%.
The result for `Cc1cc(C(=O)O)sc1CNCC(C)c1ccccc1` (centres unmarked) reads -2.37%; that for `COCCNC(=O)c1cnn(-c2ccc(OC)cc2)c1C1CCN(C(=O)OC(C)(C)C)CC1`, -1.07%; that for `C=CCN(CC=C)C(=O)c1c(OC)cccc1OC`, 4.07%.
The result for `CC(C)N(Cc1nc(-c2ccc(Cl)cc2)no1)C(=O)c1ccc(F)cc1` reads -0.942%; that for `Cc1nn(Cc2ccc(C(=O)Nc3cccc(S(=O)(=O)N4CCOCC4)c3)o2)c(C)c1Cl`, -3.49%.
The result for `Cc1ccc(OCCCCN2CCOCC2)cc1` reads -4.31%.
`C=CCNc1ncnc2c1c(-c1ccccc1)cn2-c1ccccc1`: the “% Inhibition @ 10 uM” value is listed as -1.62%.
On to `CC(C)(C)NC(=O)N1CCC(C(=O)O)CC1`, for which the “% Inhibition @ 10 uM” value stood at 0.64%.
Consider `COc1ccc(NC(=O)c2ccc(Br)o2)c(C)c1`, for which the “% Inhibition @ 10 uM” value is -2.97%.
The result for `O=C(CCN1C(=O)c2ccccc2C1=O)Nc1ccccc1C(F)(F)F` reads 0.035%; that for `Cc1ccc(N2C(=O)C3CC=CC(C)C3C2=O)cc1Cl` (centres unmarked), 4.41%; that for `CC1=C(C#N)C(=O)N(C)C(=O)/C1=C\c1ccc(-c2cccc(C(=O)OC(C)C)c2)o1`, -4.93%.
For `COc1cc(C2NC(C(=O)O)Cc3c2[nH]c2ccccc32)ccc1O` (centres unmarked) the value was -2.18%; for `Fc1ccccc1C1C=C(c2ccc(Cl)cc2OC(F)F)Nc2ncnn21` (centres unmarked), 0.219%; for `CN1C(=O)C2(C(C#N)=C(N)N(c3ccc(Cl)cc3)C3=C2C(=O)CC(C)(C)C3)c2ccccc21` (centres unmarked), 2.38%.
Take `Cc1ccc2[nH]c(Cc3nc4cc(C)ccc4[nH]3)nc2c1`: the “% Inhibition @ 10 uM” value worked out at 5.12%.
The result for `Cc1cc(/C=C2\S/C(=N/c3ccc(C(=O)O)cc3)N(C)C2=O)c(C)n1-c1cccc(C(=O)O)c1` reads 42.9%; that for `Cc1cccc2c1-c1sc(C(=O)N3CCOCC3)cc1CO2`, -3.08%; that for `Cc1ccccc1-c1nc2ccccc2o1`, 4.38%.
For `CCOCCc1nnc(NC(=O)C(=O)c2cc(C)n(-c3ccccc3Cl)c2C)s1` the value was -2.84%; for `CCCCCn1c(CN2CCN(CC)CC2)nc2c1c(=O)[nH]c(=O)n2C`, 33.2%; for `c1ccc(CN2CCC(N3CCc4ccccc4C3)CC2)cc1`, 3.48%.

Source of the values: publication PMC6919601, “Identification of Plasmodium dipeptidyl aminopeptidase allosteric inhibitors by high throughput screening” (PLoS ONE, 2019).
